Data: PubChem BioAssay AID445 (National Center for Advancing Translational Sciences (NCATS), 2006)
About 40 (0.04%) of roughly 110,000 compounds were called active. The shares of active, inactive and inconclusive entries below differ from those in the screen. Calls follow the shape of the dose curve; as a rule, active = well fitted curve in the direction sought with a large enough effect in the signal ratio (not every such curve was filed as active); inconclusive = small, poorly fitted or top-dose-only effect, or a change in a side signal; inactive = flat fitted curve, though single readings scatter; the % refers to the signal ratio. A potency beside an inconclusive call is a rough fit, not a confirmed value.

Test: IkB Signaling;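 as to IkBa stabilization activation: 0% = basal untreated cells and 100% = reference inhibitor full response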
Conditions: ABC-DLBCL IkBa-CBG/CBR dual luciferase ratio (green luciferase fused to IkBa over red control in OCI-Ly3 lymphoma cells), 4 h; IkBa stabilization activation: at 57.1 µM (top of the series), scaled: untreated 0%, proteasome inhibitor 100% unless noted
Method in brief: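 Curves were fitted separately to fusion (green), unfused (red) and ratio luminescence, then classed by r2, magnitude and activity. Cells: OCI-Ly3, 4 h compound plus doxycycline at 37C; 10 uM MG-132 defined full response.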
Potency is read from the fitted curve at half-maximal effect.

| Compound | IkBa stabilization activation | Potency |
| --- | --- | --- |
| COC(=O)c1c(C)[nH]c(C(=O)COC(=O)Cc2ccc3c(c2)OCCO3)c1C | inconclusive: 1.45% [signal inhibitor] |  |
| Cc1ccc(C)n1-c1c(C(=O)NCCCN2CCN(c3ccc(F)cc3)CC2)sc2ncccc12 | inconclusive: 1.1% [signal inhibitor] |  |
| O=C(c1c(F)c(F)c(F)c(F)c1F)N1CCN(c2cccc(C(F)(F)F)c2)CC1 | inconclusive: 10.1% [signal inhibitor] |  |
| Cc1ccc(Cl)cc1-n1ncc2c(NCCCn3ccnc3)ncnc21 | inconclusive: -0.543% [signal inhibitor] |  |
| O=C(C1CCN(S(=O)(=O)Cc2ccccc2)CC1)N1CCN(c2ccc(F)cc2)CC1 | inconclusive: 0.283% [signal inhibitor] |  |
| O=C(CSc1nnc(-c2cccs2)n1-c1ccccc1)c1ccc2c(c1)OCCO2 | inactive: 0.955% |  |
| CCOc1ccc(Cc2nnc(SCC(=O)c3ccc(OC)cc3)o2)cc1 | inconclusive: 3.66% [signal inhibitor] |  |
| O=C(NCc1ccncc1)C12CC3CC(CC(C3)C1)C2 | inactive: 1.49% |  |
| CCOC(=O)Cc1csc(SCC(=O)c2c(N)n(CC(C)C)c(=O)n(C)c2=O)n1 | inconclusive: 2.49% [signal inhibitor] |  |
| Cc1cccc(-c2nnn3c2nc(NCCc2ccc(S(N)(=O)=O)cc2)c2ccccc23)c1 |  | inconclusive: 20 µM [signal inhibitor] |
| Nc1nnc(C(=O)c2ccccc2N)s1 | inactive: 4.11% |  |
| COc1ccc(OC)c(NC(=O)CSc2cn(CC(=O)N3CCCCCC3)c3ccccc23)c1 | inconclusive: 0.433% [signal inhibitor] |  |
| CCSc1nnc(-c2ccc(S(=O)(=O)N3CCOCC3)cc2)n1CC1CCCO1 (stereo unspecified) | inactive: 0.415% |  |
| C#C[C@@]1(OC(C)=O)CC[C@@H]2[C@@H]3CCC4=C[C@@H](OC(C)=O)CC[C@H]4[C@H]3CC[C@]21C | inactive: 6.01% [at 25.6 µM, scaled: untreated 0%, proteasome inhibitor 100%] |  |
| CCSc1ncc(Cl)c(C(=O)N(Cc2ccc(N(C)C)cc2)Cc2ccco2)n1 | inconclusive: -1.25% [signal inhibitor] |  |
| Cc1ccc(NC(=O)CSc2nc3ccccc3nc2Cc2ccccc2)c(C)c1 | inconclusive: 0.607% [signal inhibitor] |  |
| COC(=O)CNc1nc(-c2ccncc2)nc2ccccc12 | inactive: 0.169% |  |
| Cc1cccc(NC(=O)c2cc(-c3ccc4c(c3)OCCO4)on2)c1 |  | inconclusive: 1.26 µM [signal inhibitor, partial curve] |

| Compound | IkBa stabilization activation | Potency |
| --- | --- | --- |
| COc1ccc(-c2noc(-c3ccccc3-c3ccccc3)n2)cc1OC | inactive: 1.87% |  |
| Cc1ccc2nc(-c3ccccn3)oc2c1 | inactive: 1.34% |  |
| COc1ccc(C)cc1NC(=O)C1CCN(S(=O)(=O)c2ccc3c(c2)CCCN3C(C)=O)CC1 | inconclusive: 8.32% [signal inhibitor] |  |
| Cc1cc(C(=O)OCC(=O)N2CC(C)CC(C)C2)c(C)o1 (stereo unspecified) | inactive: 1.56% |  |
| O=C(C1CCCN1S(=O)(=O)c1cccc2cccnc12)N1CCc2ccccc2C1 (stereo unspecified) | inactive: -2.54% |  |
| CCOCCCNC(=O)c1cc2c(-c3ccc(Cl)cc3)nn(C)c2s1 | inactive: 3.75% |  |
| Cc1ccc(Cl)cc1N1CCN(C(c2ccc(C#N)cc2)c2nnnn2C2CCCC2)CC1 (stereo unspecified) | inactive: 1.19% |  |
| Cc1ccc(Cl)cc1N1CCN(C(=O)C2CCN(S(=O)(=O)c3cccnc3)CC2)CC1 | inconclusive: 2.55% [signal inhibitor] |  |
| O=S(=O)(c1ccccc1)N1CCC[C@@]2(CCN(Cc3ccccc3)C2)C1 | inactive: 1.19% [at 11.4 µM, scaled: untreated 0%, proteasome inhibitor 100%] |  |
| CCCCOc1ccc(Cn2c(=O)oc3ccc(C)cc32)cc1 | inactive: 5.89% |  |
| CN1CC[C@@]2(CCN3CCc4c(oc5ccccc45)[C@@H]3C2)N(C)C1=O | inactive: 5.84% |  |
| Cc1nc2nc(NCc3cccc(Cl)c3)[nH]n2c(=O)c1Cc1ccccc1 | inconclusive: -0.961% [signal inhibitor] |  |
| CCOc1ccc2nc(N3CCCC(C(=O)NCCCOC)C3)sc2c1 (stereo unspecified) | inactive: -0.81% |  |
| COC(=O)C1C(O)=C(C=NCC(C)N=CC2=C(O)C(C(=O)OC)C(C)(C)CC2=O)C(=O)CC1(C)C (stereo unspecified) | inactive: -0.549% |  |
| COC(=O)c1ccc(Cn2c(SCc3ccccc3F)nc3ccncc32)cc1 | inconclusive: 4.29% [signal inhibitor] |  |
| CC1C(=O)Nc2ccc(S(=O)(=O)NCc3ccc(N(C)C)cc3)cc2NC1=O (stereo unspecified) | inconclusive: 1.95% [signal inhibitor] |  |
| O=C(Nc1ccccc1)c1ccccc1O | inconclusive: 15.3% [signal inhibitor] |  |
| COc1ccc(OCCn2c(C(C)Oc3ccccc3)nc3ccccc32)cc1 (stereo unspecified) | inconclusive: 9.42% [signal inhibitor] |  |
